# Laboratory results published in PMC5591645 (Nature structural & molecular biology, 2017).
# T1: PPP1R15B amino acids 340–698 (R15B) (human, UniProt Q5SWA1 340-698)
# T1 sequence: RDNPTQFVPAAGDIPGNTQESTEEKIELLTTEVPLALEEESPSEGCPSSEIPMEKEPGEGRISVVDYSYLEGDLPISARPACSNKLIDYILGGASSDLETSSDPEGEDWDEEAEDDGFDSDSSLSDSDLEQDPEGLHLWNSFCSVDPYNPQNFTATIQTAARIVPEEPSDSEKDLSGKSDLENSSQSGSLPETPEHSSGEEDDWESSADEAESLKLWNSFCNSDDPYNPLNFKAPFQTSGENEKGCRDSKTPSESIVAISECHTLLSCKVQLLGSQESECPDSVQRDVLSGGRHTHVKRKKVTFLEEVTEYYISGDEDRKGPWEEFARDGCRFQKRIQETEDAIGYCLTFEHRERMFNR
# B1: human PP1α […] (PP1) (enzyme)
# chain: not shown
# modifications: Red-NHS dye label (Monolith NT Protein labeling Kit Red-NHS) in the thermophoresis experiments; unlabelled in the pull-down
# Biological target: T1, PPP1R15B amino acids 340–698 (R15B)
# Test: pull-down
binder,measurement,value
B1,binding result,binds
